Test results reported in publication PMC10213050.
Where a chain is given by its changes, count along the chain named. Results are given in words; binding and its absence hold for the method and conditions named. For some assays here: In cells and extracts the contact can be indirect. Some binding calls cover weakened binding; strength is not graded here. For some assays here: Sequences can lack the tags named with a protein.

The chains behind the UniProt entries cited, without tags or fusion partners.
UniProt Q5VTR2: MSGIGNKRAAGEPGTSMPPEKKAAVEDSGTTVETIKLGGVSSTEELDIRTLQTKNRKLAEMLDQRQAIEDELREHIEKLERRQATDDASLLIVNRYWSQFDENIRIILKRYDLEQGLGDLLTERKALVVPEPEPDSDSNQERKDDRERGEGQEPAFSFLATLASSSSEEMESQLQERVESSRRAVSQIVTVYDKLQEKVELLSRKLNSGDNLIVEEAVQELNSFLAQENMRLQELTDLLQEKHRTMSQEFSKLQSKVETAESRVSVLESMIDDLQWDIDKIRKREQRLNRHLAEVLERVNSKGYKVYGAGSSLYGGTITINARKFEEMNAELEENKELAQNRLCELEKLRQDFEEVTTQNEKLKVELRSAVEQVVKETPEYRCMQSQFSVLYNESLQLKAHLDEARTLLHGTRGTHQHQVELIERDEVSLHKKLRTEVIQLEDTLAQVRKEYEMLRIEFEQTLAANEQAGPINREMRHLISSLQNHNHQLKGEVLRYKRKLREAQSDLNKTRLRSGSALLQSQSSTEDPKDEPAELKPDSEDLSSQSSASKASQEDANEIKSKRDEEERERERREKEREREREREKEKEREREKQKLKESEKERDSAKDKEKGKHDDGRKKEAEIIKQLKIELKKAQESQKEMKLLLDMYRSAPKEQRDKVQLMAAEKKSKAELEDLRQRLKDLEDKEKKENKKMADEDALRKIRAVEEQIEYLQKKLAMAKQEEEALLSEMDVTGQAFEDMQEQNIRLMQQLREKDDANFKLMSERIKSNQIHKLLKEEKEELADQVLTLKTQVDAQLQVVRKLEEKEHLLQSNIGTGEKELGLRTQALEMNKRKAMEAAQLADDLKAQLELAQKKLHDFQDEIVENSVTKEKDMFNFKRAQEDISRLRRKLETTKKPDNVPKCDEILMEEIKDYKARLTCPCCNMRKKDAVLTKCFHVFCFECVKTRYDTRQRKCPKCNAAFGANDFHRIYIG
UniProt Q06609: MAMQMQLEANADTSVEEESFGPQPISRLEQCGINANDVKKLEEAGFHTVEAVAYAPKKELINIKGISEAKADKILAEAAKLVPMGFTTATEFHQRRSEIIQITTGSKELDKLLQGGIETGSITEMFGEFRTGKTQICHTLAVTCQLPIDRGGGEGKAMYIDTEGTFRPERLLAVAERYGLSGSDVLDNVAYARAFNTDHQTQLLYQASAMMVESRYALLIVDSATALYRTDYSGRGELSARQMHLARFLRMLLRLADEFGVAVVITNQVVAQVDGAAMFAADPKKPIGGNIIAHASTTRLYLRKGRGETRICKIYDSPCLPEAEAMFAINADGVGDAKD
UniProt Q8NFZ0: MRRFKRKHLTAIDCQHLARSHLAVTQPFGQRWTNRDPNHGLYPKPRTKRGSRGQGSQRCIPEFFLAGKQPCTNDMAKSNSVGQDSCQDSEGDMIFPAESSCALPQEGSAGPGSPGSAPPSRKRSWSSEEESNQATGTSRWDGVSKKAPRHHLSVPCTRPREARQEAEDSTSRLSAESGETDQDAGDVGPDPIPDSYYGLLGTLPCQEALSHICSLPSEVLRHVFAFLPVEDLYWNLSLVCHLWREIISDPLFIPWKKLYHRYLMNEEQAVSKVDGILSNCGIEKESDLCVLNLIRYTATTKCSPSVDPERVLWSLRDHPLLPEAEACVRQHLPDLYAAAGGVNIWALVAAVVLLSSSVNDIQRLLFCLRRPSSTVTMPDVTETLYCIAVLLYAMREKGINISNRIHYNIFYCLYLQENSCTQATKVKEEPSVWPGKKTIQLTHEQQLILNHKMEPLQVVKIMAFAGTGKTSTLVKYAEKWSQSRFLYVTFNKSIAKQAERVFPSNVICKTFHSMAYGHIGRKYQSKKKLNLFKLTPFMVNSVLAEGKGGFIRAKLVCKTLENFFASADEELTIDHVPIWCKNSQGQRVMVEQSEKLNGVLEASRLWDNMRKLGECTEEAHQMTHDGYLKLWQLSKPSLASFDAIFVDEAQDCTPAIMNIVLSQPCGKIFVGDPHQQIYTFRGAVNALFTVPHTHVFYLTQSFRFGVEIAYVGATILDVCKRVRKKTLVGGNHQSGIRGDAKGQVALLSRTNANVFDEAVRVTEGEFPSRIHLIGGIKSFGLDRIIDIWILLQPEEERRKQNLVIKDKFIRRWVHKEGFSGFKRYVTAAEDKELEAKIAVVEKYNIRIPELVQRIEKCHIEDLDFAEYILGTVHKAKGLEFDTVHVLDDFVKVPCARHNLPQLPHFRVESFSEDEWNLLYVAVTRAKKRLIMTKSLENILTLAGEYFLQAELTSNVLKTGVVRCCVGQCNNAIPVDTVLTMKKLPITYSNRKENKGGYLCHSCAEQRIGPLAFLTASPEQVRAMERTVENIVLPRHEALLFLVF
UniProt P25454: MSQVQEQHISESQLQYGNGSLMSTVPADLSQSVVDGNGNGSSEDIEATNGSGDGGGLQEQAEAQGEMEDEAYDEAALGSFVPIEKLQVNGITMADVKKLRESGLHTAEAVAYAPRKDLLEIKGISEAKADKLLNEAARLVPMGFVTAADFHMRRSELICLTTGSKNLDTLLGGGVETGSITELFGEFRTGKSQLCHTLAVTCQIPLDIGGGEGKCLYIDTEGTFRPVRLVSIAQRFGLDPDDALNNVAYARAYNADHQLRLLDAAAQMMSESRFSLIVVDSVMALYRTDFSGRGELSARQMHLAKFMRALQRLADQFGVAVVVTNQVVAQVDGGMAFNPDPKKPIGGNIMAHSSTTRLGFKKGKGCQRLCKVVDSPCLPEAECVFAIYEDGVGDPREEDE

Legend:
GST-RNF20 (human) = GST-RNF20 (human) (UniProt Q5VTR2); assay: pull-down; GST-tagged Bre1 (WT, truncated or mutant) or GST-RNF20 on glutathione agarose beads, incubated with 6xHis-tagged Rad51, hRad51 or FBH1 at 4 °C for 4 h; wash 20 mM Tris-HCl pH 7.4, 200 mM NaCl; Western blot or Coomassie; both purified
[1] = biological target: T1, GST-Bre1-EK2A (yeast (Saccharomyces cerevisiae)) (UniProt Q07457); assay: as above
T1 sequence: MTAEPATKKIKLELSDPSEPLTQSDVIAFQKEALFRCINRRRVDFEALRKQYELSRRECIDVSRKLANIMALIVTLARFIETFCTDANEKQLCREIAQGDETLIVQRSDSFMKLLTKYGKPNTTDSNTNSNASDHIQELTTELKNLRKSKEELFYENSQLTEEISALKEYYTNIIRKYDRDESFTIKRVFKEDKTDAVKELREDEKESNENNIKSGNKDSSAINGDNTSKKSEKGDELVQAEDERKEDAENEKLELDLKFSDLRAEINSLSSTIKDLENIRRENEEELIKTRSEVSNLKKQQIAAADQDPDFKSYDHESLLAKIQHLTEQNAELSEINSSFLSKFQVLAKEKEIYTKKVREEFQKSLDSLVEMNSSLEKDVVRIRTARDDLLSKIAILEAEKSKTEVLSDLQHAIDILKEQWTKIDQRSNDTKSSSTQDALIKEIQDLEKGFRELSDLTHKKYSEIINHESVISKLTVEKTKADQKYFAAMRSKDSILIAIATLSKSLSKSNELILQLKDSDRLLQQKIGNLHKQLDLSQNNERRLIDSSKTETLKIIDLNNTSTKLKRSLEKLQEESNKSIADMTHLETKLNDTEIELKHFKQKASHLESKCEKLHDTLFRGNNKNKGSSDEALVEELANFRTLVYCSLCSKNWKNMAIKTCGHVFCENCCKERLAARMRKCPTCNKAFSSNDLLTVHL

[2] = biological target: T2, GST-tagged truncated Bre1 1-496 aa (yeast (Saccharomyces cerevisiae)) (UniProt Q07457); assay: as above
T2 sequence: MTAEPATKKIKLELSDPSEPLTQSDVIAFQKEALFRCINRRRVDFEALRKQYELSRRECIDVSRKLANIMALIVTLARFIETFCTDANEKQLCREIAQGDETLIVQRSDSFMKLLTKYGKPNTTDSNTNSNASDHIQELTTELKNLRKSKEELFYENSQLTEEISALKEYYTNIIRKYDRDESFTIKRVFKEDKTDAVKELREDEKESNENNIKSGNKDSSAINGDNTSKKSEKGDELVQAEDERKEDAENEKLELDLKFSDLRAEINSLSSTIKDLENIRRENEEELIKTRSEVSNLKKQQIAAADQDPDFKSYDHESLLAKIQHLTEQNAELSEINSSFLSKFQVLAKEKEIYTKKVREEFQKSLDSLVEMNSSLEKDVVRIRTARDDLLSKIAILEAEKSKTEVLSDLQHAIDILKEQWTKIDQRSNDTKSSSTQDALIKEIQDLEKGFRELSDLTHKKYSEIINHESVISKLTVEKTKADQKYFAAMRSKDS

FLAG-RNF20 (human) = FLAG-RNF20 (human) (UniProt Q5VTR2); assay: co-IP; HEK293T cells co-transfected with FLAG-tagged and HA-tagged constructs; NETN buffer (100 mM NaCl, 0.5% Nonidet P-40); anti-FLAG antibody on protein G-sepharose, 16 h at 4 °C
[3] = biological target: T3, Bre1-3xFLAG (yeast (Saccharomyces cerevisiae)) (UniProt Q07457); assay: co-IP; yeast cell lysates, anti-HA or anti-FLAG antibody and protein G-agarose, 150 mM NaCl, 0.4% Nonidet P-40; cells untreated or treated with phleomycin or MMS; for Srs2-Bre1 also with benzonase treatment
T3 sequence: T1 sequence with A500E, A502K

[4] = biological target: T4, bre1-EK2A-3xFLAG (yeast (Saccharomyces cerevisiae)) (UniProt Q07457); assay: as above
T4 sequence: T1 sequence

[5] = biological target: endogenous RNF20 (human (endogenous in HEK293T or Hela cells)) (UniProt Q5VTR2); assay: co-IP; immunoprecipitation of endogenous proteins from human cells
[6] = biological target: endogenous hRad51 (human (endogenous in HEK293T or Hela cells)) (UniProt Q06609); assay: as above

For “6xHis-FBH1 (from UniProt Q8NFZ0 1-1043) (enzyme)”, the binding (GST-RNF20 (human)) was “binds”.

6xHis-Rad51 (from UniProt P25454 1-400) was tested, and the binding [1] was “no binding” and the binding [2] was “no binding”.

In the case of “HA-FBH1 (from UniProt Q8NFZ0 1-1043) (enzyme)”, the binding (FLAG-RNF20 (human)) was “binds”.

For Rad51-3xHA (from UniProt P25454 1-400), the binding [3] was “binds” and the binding [4] was “no binding”.

“endogenous FBH1 (from UniProt Q8NFZ0 1-1043) (enzyme)” was tested, and the binding [5] was “binds”.

For “endogenous RNF20 (from UniProt Q5VTR2 1-975) (enzyme)”, the binding [6] was “binds”.
